Biological target: T1, ovalbumin (UniProt P01012 2-386)
T1 construct: Control
T1 sequence (looked up): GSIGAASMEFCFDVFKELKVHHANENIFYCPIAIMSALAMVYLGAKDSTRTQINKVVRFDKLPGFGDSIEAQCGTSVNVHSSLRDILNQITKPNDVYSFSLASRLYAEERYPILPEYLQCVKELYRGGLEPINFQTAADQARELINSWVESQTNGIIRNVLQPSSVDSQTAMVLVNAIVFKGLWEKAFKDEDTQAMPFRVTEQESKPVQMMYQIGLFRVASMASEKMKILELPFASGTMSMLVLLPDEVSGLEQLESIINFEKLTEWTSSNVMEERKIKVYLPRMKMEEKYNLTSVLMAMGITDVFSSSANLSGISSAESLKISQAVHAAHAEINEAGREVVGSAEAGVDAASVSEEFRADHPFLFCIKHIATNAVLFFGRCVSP
Assay: ELISA, increasing concentrations of SUMO1 on coated wells

binding result: no binding
B1: SUMO1 (other)
chain: not shown
notes: Immobilized on CnBr Sepharose beads or ELISA wells, or free in solution; also called S1
